# Values quoted from earlier work as cited in patent US4079139A, “Flavone derivatives” (priority 1974, dated 1978).
# System: toxicity of sodium Pentobarbital
# Details: background statement, in words; cited from earlier work
structure (smiles),measurement,value
CC(N)Cc1ccccc1 (stereo not shown) [amphetamine],effect on the toxicity of the barbiturate,do not modify the toxicity of the barbiturate
